Source: PubChem BioAssay AID686978 (National Center for Advancing Translational Sciences (NCATS), 2013)
The whole screen tested about 420,000 compounds, of which about 64,000 (15%) were called active. The inconclusive results got no clear call from the source; some entries with a clear call stand among them for comparison. Calls come from the whole dose curve; as a rule, active = well fitted inhibition curve with a large enough effect; inconclusive = small, poorly fitted or top-dose-only effect; inactive = flat fitted curve, though single readings scatter. Potencies of inconclusive entries are left out as doubtful fits.

Test: qHTS for Inhibitors of human tyrosyl-DNA phosphodiesterase 1 (TDP1): qHTS in cells in absence of CPT; note: nearly all actives have a fitted effect of over 55% in size
Conditions: DT40 Tdp1-/- hTDP1 cells, no CPT, ATP luminescence, 48 h; activity change, negative = growth inhibition: at 46.2 µM (top of the series) unless noted
How it was run: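 Compound effects on proliferation are scored in DT40 Tdp1-/-;hTDP1 cells in the absence of CPT. ATP levels (CellTiter-Glo luminescence) are recorded after a ≥48 hr, 37 °C incubation.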
% is set by controls: 0 for no effect and ±100 for the full control effect; potency is the fitted concentration of half-maximal effect; tags give direction and shape of the fitted curve.

Row | Structure (SMILES) | activity change, negative = growth inhibition | Potency
1 | Cc1cccc(OCC(=O)N2CCN(CCc3ccccn3)CC2)c1 | inactive: -4.23% | 
2 | COc1ccc(CCNC(=O)c2c(N)n(CCN3CCOCC3)c3nc4ccccc4nc23)cc1OC |  | active: 13 µM
3 | CCOC(=O)C(C)(CC)NC(=O)CSP(=S)(OCC)OCC (stereo not given) |  | inconclusive [inhibitor, partial curve]
4 | Cc1ccc(-n2c(=O)[nH]c3ccc(Br)cc3c2=O)cc1 | inactive: -20.7% | 
5 | Cc1cc(OC(=O)c2cccs2)c2c3c(c(=O)oc2c1)CCCC3 |  | active: 5.17 µM
6 | CC(C)(C)n1nnnc1C(c1cccc2ccccc12)N1CCC2(CC1)C(=O)NCN2c1ccccc1 (stereo not given) |  | inconclusive [inhibitor, single point]
7 | N#Cc1ccc(NC(=O)CN2C(=O)NC3(CCCCCCC3)C2=O)cc1Cl |  | active: 7.31 µM
8 | COc1ccc2c(c1OC)C(=O)O[C@H]2[C@@H]1c2cc3c(cc2CCN1C)OCO3 |  | inactive
9 | CC1(C)CC/C(=C/c2ccc(Cl)cc2)C1(O)Cn1cncn1 (stereo not given) |  | inconclusive [inhibitor, single point]
10 | NCCc1ccc(S(N)(=O)=O)cc1 | inactive: 17.2% | 
11 | c1ccc(-c2ccc(CN3Cc4ccccc4-n4nncc4C3)cc2)cc1 |  | active: 5.17 µM
12 | Cc1ccc2c(c1)NP(=S)(Oc1ccccc1)N2 (stereo not given) | inactive: -13.4% | 
13 | COc1ccc(C2SCC(=O)Nc3c2c(C)nn3C2CCOC(C)(C)C2)cc1OC (stereo not given) | inactive: 1.92% | 
14 | O=C1C(=O)c2cccc3cccc1c23 |  | active: 0.651 µM
15 | CCCCn1c(O)c(C=Nc2c(C)n(C)n(-c3ccccc3)c2=O)c(=O)[nH]c1=O | inactive: -2.42% | 
16 | CCCCc1ccc(NC(=O)c2ccc3c(c2)CCN3S(=O)(=O)CC)cc1 |  | active: 3.66 µM
17 | Cc1cc(OCC(=O)N2CCC(C(=O)NCC(C)C)CC2)c2c3c(c(=O)oc2c1)CCCC3 |  | active: 13 µM
18 | O=C1NC(=O)C(=Cc2ccc(OCCOc3ccc([N+](=O)[O-])cc3)cc2)C(=O)N1 |  | inconclusive [inhibitor, single point]

Row | Structure (SMILES) | activity change, negative = growth inhibition | Potency
19 | COC(=O)C1=C(c2ccc(F)cc2OCc2ccccc2)C[C@@H]2CC[C@H]1N2C(=O)NCc1ccc(N(C)C)cc1 |  | inconclusive [inhibitor, single point]
20 | CCOc1cc2c(cc1OCC)-n1cccc1C(c1ccc(OC)cc1)NC2 (stereo not given) |  | active: 18.4 µM
21 | O=[N+]([O-])c1ccc(C[n+]2c(-c3ccccc3)cc(-c3ccccc3)cc2-c2ccccc2)cc1 |  | active: 2.31 µM
22 | COc1cc(C(=O)N2Cc3ccc(Br)cc3-n3nncc3C2)cc(OC)c1OC |  | inconclusive [inhibitor, single point]
23 | CCCCCCCCN1C(=O)[C@H](CC(=O)NCCCC)C[C@@]2(C(=O)OCC)CCCC=C12 |  | active: 11.6 µM
24 | COC(=O)C1=C(c2cccc(OCc3ccccc3)c2)C[C@@H]2CC[C@H]1N2C(=O)NNCc1ccccc1 |  | active: 10.3 µM
25 | COc1cc(CNCCc2c[nH]c3ccccc23)cc(OC)c1OC |  | inconclusive [inhibitor, single point]
26 | COc1ccc(-n2c(C)nc3ccccc3c2=O)c([N+](=O)[O-])c1 |  | inconclusive [inhibitor, single point]
27 | O=[N+]([O-])c1ccc(N2CCCNCC2)c2ncccc12 |  | inconclusive [inhibitor, single point]
28 | Cc1c(P(=S)(c2ccccc2)c2ccccc2)[n+]2ccccc2n1C |  | active: 4.11 µM
29 | COC(=O)C1=C(c2ccc(OC(F)(F)F)cc2)C[C@@H]2CC[C@H]1N2C(=O)NCc1cccc2ccccc12 |  | inconclusive [inhibitor, single point]
30 | COC(=O)c1cc2c(cn1)[nH]c1ccccc12 | inactive: -0.302% | 
31 | O=c1[nH]c2ccccc2n1C1CCN(C(c2ccccc2OC(F)(F)F)c2nnnn2-c2ccc3c(c2)OCCO3)CC1 (stereo not given) |  | active: 4.61 µM
32 | CCOC(=O)c1c(C)[nH]c(C(=O)C(Cc2ccccc2)N(C)C)c1C (stereo not given) |  | inconclusive [inhibitor, single point]
33 | N#CC(C#N)=C(C#N)c1ccc(Nc2ccccc2)cc1 |  | inconclusive [inhibitor, single point]
34 | C[C@H]1CN([C@@H](C)CO)C(=O)c2cccc(NC(=O)c3ccc(-c4nccs4)cc3)c2O[C@@H]1CN(C)C(=O)Nc1cccc2ccccc12 |  | active: 14.6 µM
35 | CCCCn1nnnc1C(C1CC1)N1CCC(n2c(=O)[nH]c3ccccc32)CC1 (stereo not given) |  | inconclusive [inhibitor, single point]
